# Laboratory results reported in patent publication US4914189A, “Synthetic GHRH analogs” (The Adminstrators of the Tulane Educational Fund, priority 1987, dated 1990).
# Several values for one entry are separate records, joined by “and”; a condition that tells them apart may be missing. Equal entries are not always repeated. At least one peptide structure holds a part that was inferred or is arguable (an end, a ring closure or a residue). Square brackets hold non-standard residues; d marks the D form. Peptide text beside a SMILES is read from it. * marks the point of attachment. Desaminotyrosyl = O=C(CCc1ccc(O)cc1)*; Agmatine = N=C(N)NCCCCN*; Nle = CCCC[C@H](N)C(=O)O; dNMeA = CN[C@H](C)C(=O)O
# Legend:
# [1] = test system: superfused pituitary cell system; assay: In vitro GH release, superfused pituitary cell system; assay type: cell-based, rat; conditions: for Released GH Level Average / Released GH Level: peptides administered for 3 minutes at 10M^-9 Concentration; for Released GH Level: individual values; for Potency %: relative to GH-RH^1-29 standard, 3 minutes at 10M^-9 Concentration
# Protocol: The compounds of the present invention were tested both in vitro in rat cell culture and in vivo in rats to determine GHRH activity. The protocols are as follows:
# Twenty-four adult male or female Sprague-Dawley strain rats were decapitated for each experiment. After posterior lobes were removed, the anterior pituitaries were cut into small pieces and incubated in a Dubnoff incubator for 45 minutes at 37° C. in 10 ml. of oxygenated Medium 199 (GIBCO) containing 0.5% collagenase (Sigma Type 1), 0.25% bovine serum albumin (BSA) (Sigma RIA grade), and 5 μg./ml. Gentamicin Sulphate (Sigma). After this incubation, there were no apparent changes in the appearance of the tissue. However, the fragments could be easily dipsersed into single cells by repeated suction and expulsion from a Gilson Pipetman. After 30 to 60 Pipetman operations, the tissue fell apart; a second collagenase incubation was not usually necessary. The cell suspension was centrifuged at room temperature for 10 minutes at […]. The cell pellet was then resuspended in 1.0 ml. of medium. A small aliquot was diluted for counting the cells, and the rest or one suspension was divided into 2 equal volumes. Each volume (containing about 5× 10^6 cells, usually between 3.5 and 7.0×10^6) was mixed with 0.5 ml. Sephadex G-15 which had been equilibrated with previously oxygenated medium. The mixture of pituitary cells and Sephadex was transferred into 2 chambers of the superfusion apparatus and perfused with the medium. The medium was always freshly prepared in a way similar to that used for the enzymatic dispersion, but with the omission of the collagenase, passed through a millipore filter, and gassed continuously with a mixture of O2 (95%) and CO2 (5%) during the experiment.
# The superfusion apparatus (FIG. 1) consisted of a number of 1 ml. plastic syringe barrels (modified by cutting off their distal end) and mounted vertically in a Plexiglas holder which was kept at 37° C. by circulating water. The unit was constructed in our laboratory workshop. Properly greased O-rings prevented the leakage of the circulating water around the syringe barrels. Each barrel was fitted with plungers at both ends. Holes were drilled in the plungers to accommodate plastic tubing. The lower plunger was covered with a small piece of 30 μm-pore nylon net to keep the Sephadex beads from escaping. The "pores" between the beads were small enough to prevent the pituitary cells from escaping and large enough to allow a practically unrestricted flow of medium through the cell column. The upper plunger tubing was used for directing the flow through the chamber from the medium reservoir. The flow through the system (0.5 ml min) was controlled with a multichannel peristaltic pump (Gilson) Minipulse type HP-8 which was placed after the superfusion chamber; the tubing of the lower plunger was connected to the pump and from there to a four-channel fraction collector (a modified Gilson type Anacol SC30). Thus, the system was operated with a negative pressure in order to get fewer fluctuations in the flow rate. The medium from the chamber was collected into disposable borosilicate glass tubes containing 30 μl of 1N HCl for immediate acidifying of the perfusate to prevent the loss of ACTH activity at neutral or alkaline pH (14, 34, 38).
# ACTH radioimmunoassays were performed on 100 μl aliquots of undiluted superfusion medium essentially as described elsewhere (14); however, the separation of bound and free ACTH was accomplished by a polyethylene glycol facilitated second antibody method. Rat GH was measured in aliquots of undiluted or diluted superfusates to determine either basal or stimulated secretion. The antisera (a-hACTH batch No. 2, a-rGH S-4) and the hormones (rGH RP-1 and I-4, hACTH) for both ACTH and GH RIA were provided by NHPP (NIADDK, NIH).
# In vitro effect of synthetic GH-RH analogs on the GH
# release used in the superfused pituitary cell system method. […]
# [2] = test system: release of pituitary GH; assay: In vivo release of pituitary GH after one single i.v. injection in female rats; set-up: species or system rat; conditions: for Relative Potency (based on the effect of hpGHRH at the actual time) / Responses in plasma GH in ng GH/ml: 1.0 ug/(female) rat i.v.; for Absolute Potency (based on the average value of the four samples at -1 min.): average GH level at -1 min. 63.5 ng GH/ml plasma
# Protocol: Adult female rats were used and were anesthetized with pentobarbital (6 mg/100 g, b.w.), injected i/p. 20 minutes after the injection of pentobarbital; blood samples were taken from the jugular vein (pretreated level) and immediately thereafter hpGH-RH^1-29 (as a control) or GH-RH^1-29 analogs were injected i.v. Blood samples were taken from the jugular vein 5, 15, 60 minutes after the injection. The blood samples were centrifuged, plasma was removed and the GH level was measured by RIA.
# In vivo Effects of synthetic GHRH analogs on the release
# of pituitary GH following one single i.v. injection of 1.0
SMILES,Released GH Level Average [1],Released GH Level [1],Potency % [1],Relative Potency (based on the effect of hpGHRH at the actual time) ([2]; time +5 min),Responses in plasma GH in ng GH/ml ([2]; time +5 min),Absolute Potency (based on the average value of the four samples at -1 min.) ([2]; time +5 min),Relative Potency (based on the effect of hpGHRH at the actual time) ([2]; time +15 min),Responses in plasma GH in ng GH/ml ([2]; time +15 min),Absolute Potency (based on the average value of the four samples at -1 min.) ([2]; time +15 min),Relative Potency (based on the effect of hpGHRH at the actual time) ([2]; time +60 min),Responses in plasma GH in ng GH/ml ([2]; time +60 min),Absolute Potency (based on the average value of the four samples at -1 min.) ([2]; time +60 min),Relative Potency (based on the effect of hpGHRH at the actual time) ([2]; time -1 min (pretreated level)),Responses in plasma GH in ng GH/ml ([2]; time -1 min (pretreated level)),Absolute Potency (based on the average value of the four samples at -1 min.) ([2]; time -1 min (pretreated level))
CCCC[C@H](NC(=O)[C@@H](NC(=O)[C@H](CC(=O)O)NC(=O)[C@H](CCC(N)=O)NC(=O)[C@H](CC(C)C)NC(=O)[C@H](CC(C)C)NC(=O)[C@H](CCCCN)NC(=O)[C@H](CCCNC(=N)N)NC(=O)[C@H](C)NC(=O)[C@H](CO)NC(=O)[C@H](CC(C)C)NC(=O)[C@H](CCC(N)=O)NC(=O)CNC(=O)[C@H](CC(C)C)NC(=O)[C@@H](NC(=O)[C@H](CCCCN)NC(=O)[C@H](CCCNC(=N)N)NC(=O)[C@H](Cc1ccc(O)cc1)NC(=O)[C@H](CO)NC(=O)[C@H](CC(N)=O)NC(=O)[C@@H](NC(=O)[C@H](Cc1ccccc1)NC(=O)[C@@H](NC(=O)[C@H](C)NC(=O)[C@H](CC(=O)O)NC(=O)[C@@H](C)N(C)C(=O)CCc1ccc(O)cc1)[C@@H](C)CC)[C@@H](C)O)C(C)C)[C@@H](C)CC)C(=O)N[C@@H](CO)C(=O)NCCCCNC(=N)N [Example IX] (Desaminotyrosyl-[dNMeA]DAIFTNSYRKVLGQLSARKLLQDI[Nle]S-Agmatine),8.25 ng/mL,9.00 ng/mL and 7.50 ng/mL,21%,,,,,,,,,,,,
CCCC[C@H](NC(=O)[C@@H](NC(=O)[C@H](CC(=O)O)NC(=O)[C@H](CCC(N)=O)NC(=O)[C@H](CC(C)C)NC(=O)[C@H](CC(C)C)NC(=O)[C@H](CCCCN)NC(=O)[C@H](CCCNC(=N)N)NC(=O)[C@H](C)NC(=O)[C@H](CO)NC(=O)[C@H](CC(C)C)NC(=O)[C@H](CCC(N)=O)NC(=O)CNC(=O)[C@H](CC(C)C)NC(=O)[C@@H](NC(=O)[C@H](CCCCN)NC(=O)[C@H](CCCNC(=N)N)NC(=O)[C@H](Cc1ccc(O)cc1)NC(=O)[C@H](CO)NC(=O)[C@H](CC(N)=O)NC(=O)[C@@H](NC(=O)[C@H](Cc1ccccc1)NC(=O)[C@@H](NC(=O)[C@H](C)NC(=O)[C@H](CC(=O)O)NC(=O)[C@@H](C)N(C)C(=O)[C@H](N)Cc1ccc(O)cc1)[C@@H](C)CC)[C@@H](C)O)C(C)C)[C@@H](C)CC)C(=O)N[C@@H](CO)C(=O)NCCCCNC(=N)N [Example XIII/1] (H-[dY][dNMeA]DAIFTNSYRKVLGQLSARKLLQDI[Nle]S-Agmatine),18.50 ng/mL,22.00 ng/mL and 15.00 ng/mL,46%,,,,,,,,,,,,
CCCC[C@H](NC(=O)[C@@H](NC(=O)[C@H](CC(=O)O)NC(=O)[C@H](CCC(N)=O)NC(=O)[C@H](CC(C)C)NC(=O)[C@H](CC(C)C)NC(=O)[C@H](CCCCN)NC(=O)[C@H](CCCNC(=N)N)NC(=O)[C@H](C)NC(=O)[C@H](CO)NC(=O)[C@H](CC(C)C)NC(=O)[C@H](CCC(N)=O)NC(=O)CNC(=O)[C@H](CC(C)C)NC(=O)[C@@H](NC(=O)[C@H](CCCCN)NC(=O)[C@H](CCCNC(=N)N)NC(=O)[C@H](Cc1ccc(O)cc1)NC(=O)[C@H](CO)NC(=O)[C@H](CC(N)=O)NC(=O)[C@@H](NC(=O)[C@H](Cc1ccccc1)NC(=O)[C@@H](NC(=O)[C@H](C)NC(=O)[C@H](CC(=O)O)NC(=O)[C@@H](C)N(C)C(=O)[C@H](N)Cc1ccc(O)cc1)[C@@H](C)CC)[C@@H](C)O)C(C)C)[C@@H](C)CC)C(=O)N[C@@H](CO)C(=O)NCCCCNC(=N)N [Example XIII/2] (H-[dY][dNMeA]DAIFTNSYRKVLGQLSARKLLQDI[Nle]S-Agmatine),19.00 ng/mL,22.50 ng/mL and 15.50 ng/mL,48%,,,,,,,,,,,,
CCCC[C@H](NC(=O)[C@@H](NC(=O)[C@H](CC(=O)O)NC(=O)[C@H](CCC(N)=O)NC(=O)[C@H](CC(C)C)NC(=O)[C@H](CC(C)C)NC(=O)[C@H](CCCCN)NC(=O)[C@H](CCCNC(=N)N)NC(=O)[C@H](C)NC(=O)[C@H](CO)NC(=O)[C@H](CC(C)C)NC(=O)[C@H](CCC(N)=O)NC(=O)CNC(=O)[C@H](CC(C)C)NC(=O)[C@@H](NC(=O)[C@H](CCCCN)NC(=O)[C@H](CCCNC(=N)N)NC(=O)[C@H](Cc1ccc(O)cc1)NC(=O)[C@H](CO)NC(=O)[C@H](CC(N)=O)NC(=O)[C@@H](NC(=O)[C@H](Cc1ccccc1)NC(=O)[C@@H](NC(=O)[C@H](C)NC(=O)[C@H](CC(=O)O)NC(=O)[C@@H](C)NC(=O)[C@@H](N)Cc1c[nH]cn1)[C@@H](C)CC)[C@@H](C)O)C(C)C)[C@@H](C)CC)C(=O)N[C@@H](CO)C(=O)NCCCCNC(=N)N [Example XII] (H-H[dA]DAIFTNSYRKVLGQLSARKLLQDI[Nle]S-Agmatine),59.00 ng/mL,60.00 ng/mL and 58.00 ng/mL,148%,161%,400 ng/mL,629%,211%,290 ng/mL,456%,182%,53 ng/mL,83%,128%,85 ng/mL,134%
CCCC[C@H](NC(=O)[C@@H](NC(=O)[C@H](CC(=O)O)NC(=O)[C@H](CCC(N)=O)NC(=O)[C@H](CC(C)C)NC(=O)[C@H](CC(C)C)NC(=O)[C@H](CCCCN)NC(=O)[C@H](CCCNC(=N)N)NC(=O)[C@H](C)NC(=O)[C@H](CO)NC(=O)[C@H](CC(C)C)NC(=O)[C@H](CCC(N)=O)NC(=O)CNC(=O)[C@H](CC(C)C)NC(=O)[C@@H](NC(=O)[C@H](CCCCN)NC(=O)[C@H](CCCNC(=N)N)NC(=O)[C@H](Cc1ccc(O)cc1)NC(=O)[C@H](CO)NC(=O)[C@H](CC(N)=O)NC(=O)[C@@H](NC(=O)[C@H](Cc1ccccc1)NC(=O)[C@@H](NC(=O)[C@H](C)NC(=O)[C@H](CC(=O)O)NC(=O)[C@@H](C)NC(=O)[C@H](N)Cc1ccc(O)cc1)[C@@H](C)CC)[C@@H](C)O)C(C)C)[C@@H](C)CC)C(=O)N[C@@H](CO)C(=O)NCCCCNC(=N)N [Example XIV] (H-[dY][dA]DAIFTNSYRKVLGQLSARKLLQDI[Nle]S-Agmatine),35.50 ng/mL,29.50 ng/mL and 41.50 ng/mL,89%,,,,,,,,,,,,
